Test results published in PubChem BioAssay AID1159614 (National Center for Advancing Translational Sciences (NCATS), 2016).
The whole screen tested about 45,000 compounds, of which about 65 (0.1%) were called active. Calls follow the shape of the dose curve; as a rule, active = well fitted activation curve with a large enough effect; inconclusive = small, poorly fitted or top-dose-only effect; inactive = no such curve, though single readings can be large or run the other way. This is one part of the list.

Target: Galactocerebrosidase (Homo sapiens) (UniProt P54803)
Sequence of UniProt P54803 (P54803 whole entry, looked up): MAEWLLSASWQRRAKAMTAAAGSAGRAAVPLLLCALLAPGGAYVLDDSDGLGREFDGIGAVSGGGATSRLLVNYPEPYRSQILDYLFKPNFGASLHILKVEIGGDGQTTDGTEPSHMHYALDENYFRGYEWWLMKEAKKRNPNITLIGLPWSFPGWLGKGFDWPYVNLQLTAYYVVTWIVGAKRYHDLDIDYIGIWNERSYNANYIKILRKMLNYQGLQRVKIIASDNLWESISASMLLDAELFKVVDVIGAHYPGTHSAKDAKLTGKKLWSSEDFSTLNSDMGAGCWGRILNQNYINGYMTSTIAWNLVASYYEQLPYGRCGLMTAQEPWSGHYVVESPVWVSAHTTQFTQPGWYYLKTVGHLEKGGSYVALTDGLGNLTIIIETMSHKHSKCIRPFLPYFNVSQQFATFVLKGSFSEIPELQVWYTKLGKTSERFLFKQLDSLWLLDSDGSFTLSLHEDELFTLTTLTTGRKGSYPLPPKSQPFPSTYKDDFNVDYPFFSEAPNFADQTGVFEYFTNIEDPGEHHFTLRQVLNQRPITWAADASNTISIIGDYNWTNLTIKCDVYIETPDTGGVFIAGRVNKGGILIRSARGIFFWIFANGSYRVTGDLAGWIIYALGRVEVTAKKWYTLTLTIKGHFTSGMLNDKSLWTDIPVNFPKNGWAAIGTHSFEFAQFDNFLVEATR
Experiment: A Novel Cell-Based Assay to Identify Small Molecules for B -Galactocerebrosidase; also: 0% is about no effect; nearly all actives have a fitted effect of over 65% in size
Conditions: 145M-Twi-hGALC-G270D cells (Twitcher mouse brain line with human GALC G270D), HMU-beta-Gal fluorescence, 48 h; series mostly up to 57.5 µM; activation: at the top concentration
Method in brief: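 Fluorescence readout: HMU-β-gal cleavage by mutant GALC (0.1 mM final, citrate/phosphate pH 5.2 with 1 mg/mL taurocholate), stopped with carbonate/bicarbonate plus Triton X-100. Cells: murine Twitcher 145M-Twi expressing human G270D GALC; qHTS for activators.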

activation, inactive:
CC(C)c1ccc(NC(=O)CSC2=Nc3ccccc3C3=NC(CC(=O)NCc4ccco4)C(=O)N23)cc1 (stereo unspecified) -19%, COc1ccc(NC(=O)c2ccc3c(=O)n4nc(Nc5ccccc5C)sc4nc3c2)cc1 -3.49%, O=c1c2ccccc2n2c(-c3cccc(F)c3)nnc2n1Cc1ccccc1 -10.2%, Cn1c(=O)c2c(c3ccccc31)OC(=O)CC2c1ccccc1 (stereo unspecified) 2.49%, Cc1ccc(N(C)C(=O)c2noc3c2CCCCC3)cc1C -2.46%, Cc1ccc(CC(=O)NCc2nc(-c3cccc(C)c3)no2)cc1 -13.4%, Cc1cccc(N2CCN(C(=O)c3c4c(nc5ccccc35)C(=O)N(C3CCCCC3)C4)CC2)c1C -14.8%, CN(C)c1ccc(-c2nc3ccccn3c2Nc2ccc3c(c2)OCCO3)cc1 -15%, COc1ccc(OC)c(NC(=O)c2cc3c(=O)n4cccc(C)c4nc3n2C)c1 -3.28%, COc1cccc(NC(=O)CSc2nnc(NC(=O)NC3CCCCC3)s2)c1 -2.43%, COc1cc(OC)c(NC(=O)C(C)n2nc(-c3ccc(C)c(C)c3)ccc2=O)cc1Cl (stereo unspecified) -6.67%, CSc1ncc(C(=O)NCc2cccc(Br)c2)c(-c2ccccc2)n1 12.3%, COCCN1C(=O)c2oc3ccc(C)cc3c(=O)c2C1c1ccc(C(=O)OC)cc1 (stereo unspecified) 5.78%, Cc1ccc(NC(=O)N2CCc3c([nH]c4ccccc34)C2c2ccccc2F)c(Cl)c1 (stereo unspecified) -14.7%, CCCN1Cc2cccc(C(=O)Nc3ccc(OC)cc3OC)c2C1=O -9.92%, O=C(Cn1c(=O)c2sccc2n(CC(=O)Nc2ccc(Cl)cc2Cl)c1=O)NCCc1ccccc1 2.67%, COc1cccc(C(=O)c2cn(CC(=O)Nc3cccc(Cl)c3C)c3nc(C)ccc3c2=O)c1 -14.9%, COc1ccc(C(C(=O)NCc2ccccc2)N(C(=O)Cn2nnc3ccccc32)c2ccc(OC)cc2)cc1 (stereo unspecified) 7.92%, COc1ccc(CNS(=O)(=O)c2ccc3c(c2)C(C)(C)C(=O)N3C)cc1OC -9.03%, O=C(NCc1ccccc1F)C(=O)NCC(c1ccco1)S(=O)(=O)c1ccccc1 (stereo unspecified) -12.8%, Cc1ccc(C)c(NS(=O)(=O)c2ccc3c(c2)CCCN3C(=O)C2CCC2)c1 -17.3%, Cc1ccc(C(C)C)c(OCC(=O)Nc2ccc(-c3nc4ncccc4o3)cc2C)c1 -10.1%, CC(=O)N1CCc2c(sc(NC(=O)CSc3ccc(C)cc3)c2-c2nc3ccccc3s2)C1 -15.6%, CCOC(=O)C1=C(CS(=O)(=O)c2ccc(F)c(C)c2)NC(=O)NC1c1ccc(F)c(F)c1 (stereo unspecified) 3.14%, Cc1c(C(=O)Nc2ccccc2Cl)oc2ccc(S(=O)(=O)N3CCCCCC3)cc12 -17.2%, Cc1cccc(N2CCN(C(=O)c3cccc(-n4c(C)nc5cccnc54)c3)CC2C)c1 (stereo unspecified) -13.8%, COC(=O)c1cc2sc(Cl)cc2n1Cc1nc(-c2ccccc2F)oc1C -5.31%, O=C1CC(=O)Nc2cc(S(=O)(=O)Nc3cccc(Br)c3)ccc2N1 -13.5%, Cc1ccc(CCNC(=O)c2ccc(CNS(=O)(=O)c3ccc(F)cc3)cc2)cc1 -17.4%, COc1ccc(NS(=O)(=O)c2cc3c4c(c2)CC(=O)N4CCC3)cc1Cl -14.7%, O=C(NC1(C(F)(F)F)N=C(c2ccccc2)N(C2CCCCC2)C1=O)c1ccccc1F (stereo unspecified) -8.92%, CCn1c(CN2CCC(C)CC2)nc2cc(NC(=O)c3cccc([N+](=O)[O-])c3)ccc21 -17.2%, COc1ccc(OC)c(CCNc2ncnc3onc(C)c23)c1 -12.1%, Cc1cc(C)cc(NC(=O)Nc2c[nH]c(=O)[nH]c2=O)c1 -9.69%, Cc1cc(C)c2c(n1)SCC(=O)N2CC(=O)Nc1c(C)cccc1C -5.42%, COc1ccccc1Nc1nn2c(=O)c3ccc(C(=O)N4CCC(C)CC4)cc3nc2s1 -19.6%, O=C(Cn1nc(-c2ccccc2)ccc1=O)NCc1ccc(F)cc1Cl -14.1%, COc1cc(NC(=O)c2c(-c3ccc(C)cc3)nnc3ccccc23)cc(OC)c1OC -2.27%, Cc1oc2c(c1C(=O)Nc1cccc(Br)c1)C1=NCCN1C=N2 -18.6%, O=C(c1nc(-c2ccc(Cl)cc2)n2c1CCCCC2)N1CCN(c2ccccc2F)CC1 -10.2%, COc1ccccc1CNC(=O)CC1N=C2c3ccccc3N=C(SCC(=O)Nc3ccc(F)cc3)N2C1=O (stereo unspecified) -21.9%, CCOc1cc(C(=O)Nc2ccc3oc(-c4ccc(F)cc4Cl)nc3c2)cc(OCC)c1OCC -1.54%, Cc1ccc(NC(=O)c2cc(C)nn2-c2ccccc2)cc1 10.9%, COc1ccc(N(Cc2cccs2)C(=O)c2ccccc2C)cc1 -16.1%, CC(=O)c1ccc(N2C(=O)N(Cc3cccc(C(F)(F)F)c3)c3ccccc3S2(=O)=O)cc1 -8.96%, CC(=O)Nc1ccc(NC(=O)CCCc2nc(-c3ccc(C(C)(C)C)cc3)no2)cc1 -6.02%, CC1=C(C(=O)OC2CCCC2)C(c2ccc(F)cc2F)CC(=O)N1 (stereo unspecified) -0.78%, Cc1ccc(CS(=O)(=O)c2cn(CC(=O)N(C)c3ccccc3)c3ccccc23)cc1 2.68%, COc1ccc(OCC(=O)NCC2(N3CCN(C)CC3)CCCCC2)cc1 -1.41%, O=C(CSc1nc(-c2ccc(F)cc2)cc(C(F)(F)F)n1)NCc1ccccc1 -10.9%, CCCCNC(=O)CCC(=O)NNc1nc2ccccc2c2nc(-c3ccccc3)nn12 -14.1%, CC(C)(C)OC(=O)N1CCC(c2c(C(=O)NC3CCN(Cc4ccccc4)CC3)cnn2-c2cccc(F)c2)CC1 -8.01%, CCOC(=O)c1c(-c2ccccc2)oc2ccc(NS(=O)(=O)c3ccc(OC)cc3)cc12 -23.2%, O=[N+]([O-])c1cc(-c2nc(-c3ccccc3)no2)ccc1NCC1CCCO1 (stereo unspecified) -12.8%, Cc1cccc(C(=O)Nc2c3c(nn2-c2ccc(Cl)cc2)CS(=O)(=O)C3)c1 -11.5%, CCOC(=O)c1ccc2c(c1)N(Cc1cccc(OC)c1)C(=O)c1ccccc1S2(=O)=O -10.4%, CCC(CC)C(=O)Nc1ccc(OCc2cc(=O)n3ccsc3n2)cc1 -8.81%, CC(=O)Nc1ccccc1-c1nc2ccccc2n(CC(=O)c2ccc(C)c(C)c2)c1=O 6.73%, Cc1ccc2ncc(C(=O)NCc3ccccc3Cl)c(=O)n2c1 -15.7%, CC1CCN(c2ccc(NC(=O)c3cccc(Cl)c3)cc2C(=O)O)CC1 -10.4%, Cc1ccc(-c2cc(C(=O)NC(C)c3ccccc3)c3ccccc3n2)cc1C (stereo unspecified) -9.56%, CCCS(=O)(=O)c1ncc(Cl)c(C(=O)N2CCN(c3ccc(OC)cc3)CC2)n1 -13.3%, CCc1ccccc1NC(=O)c1ccc(F)c(S(=O)(=O)NC2CCCCCC2)c1 -7.85%, Cc1ccc(NC(=O)CSc2nc3ccccc3c3nc(CCn4cncc4C)nn23)cc1F -12.2%, CCOc1cccc2sc(N(Cc3cccnc3)C(=O)C3CCCCC3)nc12 -8.63%, Cc1ccc(NC(=O)CSCc2cnn(-c3ccccc3)c2-n2cccc2)c(C)c1 6%, COc1ccc(-c2cc(C(=O)Oc3cccc(C)c3)c3ccccc3n2)cc1 -12.7%, Cc1ccc(CCNC(=O)C2CCN(c3nnc(C)c4c(C)n(-c5ccccc5)nc34)CC2)cc1 -3.52%, O=C(CCCCn1c(=O)c2ccccc2n(Cc2ccc(Cl)cc2)c1=O)NCc1ccccc1Cl -1.06%, Cc1cc(OC(C)C(=O)N(Cc2ccco2)Cc2ccccc2F)cc(C)c1Cl (stereo unspecified) 2.77%, COc1ccc(C)cc1NCc1nnc2n1CCCCC2 2.63%, Cn1c(=O)cc(OCC(=O)N2CCN(c3ccccc3)CC2)c2ccccc21 -0.971%, COc1ccc(NC(=O)CSc2nc3ncccc3[nH]2)c(OC)c1 -7.16%, COc1ccc(NC(=O)C2CCCN(C(=O)c3cnn(-c4ccc(F)cc4)c3-n3cccc3)C2)cc1 (stereo unspecified) -0.0735%, CCC(=O)N1CCc2cc(Br)cc(S(=O)(=O)N3CCN(c4ccc(C(C)=O)cc4)CC3)c21 -26.5%, CN1CCN(C(c2ccccc2Cl)c2sc3nc(-c4ccco4)nn3c2O)CC1 (stereo unspecified) -12.9%, Cc1ccc(C)c(N2CCN(CCCNC(=O)C3COc4ccccc4C3)CC2)c1 (stereo unspecified) -21.6%, CCN1CCC(N(Cc2ccc3c(c2)OCO3)C(=O)Nc2cc(Cl)ccc2C(=O)OC)CC1 -29%, Cc1cccc(NC(=O)C2CCCN(S(=O)(=O)c3cccc4nonc34)C2)c1C (stereo unspecified) -18.8%, CCCCN(C)CCCNC(=O)c1ccc2nc(N3CCCCC3)sc2c1 -11.4%, CCN(C(=O)CCc1nc(-c2ccc(C)cc2)no1)c1cc(C)ccc1C -12.1%, Cc1cc2oc(=O)c(CC(=O)NCCc3ccccc3)c(C)c2c2occ(C(C)(C)C)c12 -12.3%, Cc1cccc(N2CCN(C(=O)c3cn(C4CCCCC4)c(=O)c4c3c3ccccc3n4C)CC2)c1C -17.7%, Cc1cc(C(=O)O)c2c(=O)n(C)c(=O)n(C)c2n1 -7%, COc1ccc(-c2cn3c(n2)sc2cc(C(=O)NC4CCCc5ccccc54)ccc23)cc1 (stereo unspecified) 0.039%, CCCOC(=O)c1c(C)oc2c1cc(NS(=O)(=O)c1ccc(OCC)cc1)c1ccccc12 -1.16%, COc1cc2c(cc1NC(=O)COc1cc(C)ccc1C)oc1ccccc12 -10.6%, Cc1c(C)n(Cc2ccccc2)c2ccc(C(=O)NC(C)c3ccccc3)cc12 (stereo unspecified) -12.3%, Cc1ccc(Cn2c(CNS(=O)(=O)c3c(C)cc(C)cc3C)nc3cccnc32)cc1 -10.5%, CC(=O)Nc1nonc1-c1nnc(SCC(=O)Nc2ccc(F)cc2F)n1-c1ccccc1 -9.3%, CCN(Cc1ccccc1)Cc1c(O)ccc2c(=O)c(-c3ccccc3OC)c(C(F)(F)F)oc12 10.1%, Cc1cccc(OCCSc2nc3ccccc3n2CC(=O)N2CCCCC2)c1C -30.3%, CCc1ccc(OCC(=O)N(Cc2cccs2)c2ccc(Cl)cc2)cc1 -12.1%, CCn1ccc2cc(S(=O)(=O)N3CCCN(C(=O)Nc4ccccc4OC)CC3)ccc21 -10.8%, Cc1nc(CC(=O)Nc2ccc(C)c(C)c2)cs1 -4.58%, COc1ccc(N2CC(NC(=O)/C=C\c3ccc(OC)c(OC)c3)CC2=O)cc1 (stereo unspecified) -5.03%
